# Experimental data taken from the supplement of paper PMC8728848.
# The other results are listed elsewhere or left out.
# B1: Blon2468mut (Bifidobacterium longum) (protein)
# chain: MTFIKQMMPRYVASMTAGIVAAAMAATCAFAPVANADAVSPTQETIQSTGRHFMVYYRAWRDVTMKGVNTDLPDDNWISMYDIPYGVDVVNIFSYVPSGQEEQAQPFYDKLKSDYAPYLHSRGIKLVRGIDYTGVAVNGFRTFMKEQNKTESEATEADYDAYAKQVIDKYMISVGLDGLDIDMQAHPNDADVKISDNVIRALSKHIGPKSAKPDTTMFLYDTNGSYLNPFKNVAECFDYVAYQQYGSSSDRTARAAADYQPYIGNEFVPGLTFPEEGDMNNRWYDATEPYEESHFYQVASYVREHNLGGMFVYALDRDGRNYDEDLRRIVPSNLLWTKTAIAESEGMALDTAKTAANHYLDRMSLRQVIDDNAASADKARDMVGKAANLYETNKAVLGGDYGEGFSNTYDPTLEAGLLGIDISVLQQQIDKSSEIIGADTAESDAKTALRMARDAAIDGLTGKIYTADQVSAWSQALKAALDATVPVPTPDSTDQNGNRDKVTNHKVQGQPKQLSATGISTDIIVAVGVTLAIAGVALSLSRKLS
# Experiments:
# Assay in all cases: glycan array binding signal (z-score within array); higher = stronger binding
# Settings in all cases: glycan notation: IUPAC condensed, linker removed
# Gal3S(b1-4)Glc6S = molecular target: Gal3S(b1-4)Glc6S
# Method in brief: (§1)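 Columns mapping to the same glycan were averaged after glycan names were converted to IUPAC-condensed notation. The data come from 3228 arrays in the Consortium for Functional Glycomics database, limited to those with an available protein sequence. Binding is reported as a within-array Z-score averaged across arrays of one protein sequence and across linkers.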
# Gal3S(b1-4)GlcNAc = molecular target: Gal3S(b1-4)GlcNAc
# Method in brief: as §1
# [1] = molecular target: Gal3S(b1-4)[Fuc(a1-3)]Glc6S
# Method in brief: as §1
# [2] = molecular target: Gal3S(b1-4)[Fuc(a1-3)]GlcNAc
# Method in brief: as §1
# [3] = molecular target: Gal3S(b1-4)[Fuc(a1-3)]GlcNAc6S
# Method in brief: as §1
# Gal3S4S(b1-4)GlcNAc = molecular target: Gal3S4S(b1-4)GlcNAc
# Method in brief: as §1
# Gal3S6S(b1-4)GlcNAc = molecular target: Gal3S6S(b1-4)GlcNAc
# Method in brief: as §1
# Gal3S6S(b1-4)GlcNAc6S = molecular target: Gal3S6S(b1-4)GlcNAc6S
# Method in brief: as §1
# Gal4S(b1-4)GlcNAc = molecular target: Gal4S(b1-4)GlcNAc
# Method in brief: as §1
# Gal4S6S(b1-4)GlcNAc = molecular target: Gal4S6S(b1-4)GlcNAc
# Method in brief: as §1
# Gal6P(b1-4)GlcNAc = molecular target: Gal6P(b1-4)GlcNAc
# Method in brief: as §1
# Gal6S(b1-3)GlcNAc = molecular target: Gal6S(b1-3)GlcNAc
# Method in brief: as §1
# Gal6S(b1-3)GlcNAc6S = molecular target: Gal6S(b1-3)GlcNAc6S
# Method in brief: as §1
# Gal6S(b1-4)Glc = molecular target: Gal6S(b1-4)Glc
# Method in brief: as §1
# Gal6S(b1-4)Glc6S = molecular target: Gal6S(b1-4)Glc6S
# Method in brief: as §1
# Gal6S(b1-4)GlcNAc = molecular target: Gal6S(b1-4)GlcNAc
# Method in brief: as §1
# Gal6S(b1-4)GlcNAc6S = molecular target: Gal6S(b1-4)GlcNAc6S
# Method in brief: as §1
# GalNAc(a1-3)Gal = molecular target: GalNAc(a1-3)Gal
# Method in brief: as §1
# GalNAc(a1-3)GalNAc = molecular target: GalNAc(a1-3)GalNAc
# Method in brief: as §1
# [4] = molecular target: GalNAc(a1-3)GalNAc(a1-3)Gal(a1-4)Gal(b1-4)GlcNAc
# Method in brief: as §1
# [5] = molecular target: GalNAc(a1-3)GalNAc(b1-3)Gal(a1-4)Gal(b1-4)Glc
# Method in brief: as §1
# GalNAc(b1-3)Gal = molecular target: GalNAc(b1-3)Gal
# Method in brief: as §1
# [6] = molecular target: GalNAc(b1-3)Gal(a1-4)Gal(b1-4)GlcNAc
# Method in brief: as §1
# [7] = molecular target: GalNAc(b1-3)Gal(a1-4)Gal(b1-4)GlcNAc(b1-3)Gal(b1-4)Glc
# Method in brief: as §1
# [8] = molecular target: GalNAc(b1-3)Gal(a1-6)Gal(b1-4)Glc
# Method in brief: as §1
# GalNAc(b1-3)GalNAc = molecular target: GalNAc(b1-3)GalNAc
# Method in brief: as §1
# GalNAc(b1-3)GlcNAc = molecular target: GalNAc(b1-3)GlcNAc
# Method in brief: as §1
# GalNAc(b1-4)Gal(b1-4)Glc = molecular target: GalNAc(b1-4)Gal(b1-4)Glc
# Method in brief: as §1
# GalNAc(b1-4)GlcNAc = molecular target: GalNAc(b1-4)GlcNAc
# Method in brief: as §1
# [9] = molecular target: GalNAc(b1-4)GlcNAc(b1-2)Man
# Method in brief: as §1
binder,measurement,setting,value
B1,glycan array binding signal (z-score),Gal3S(b1-4)Glc6S,-0.05
same,glycan array binding signal (z-score),Gal3S(b1-4)GlcNAc,-0.03
same,glycan array binding signal (z-score),[1],0.006
same,glycan array binding signal (z-score),[2],-0.008
same,glycan array binding signal (z-score),[3],-0.03
same,glycan array binding signal (z-score),Gal3S4S(b1-4)GlcNAc,-0.083
same,glycan array binding signal (z-score),Gal3S6S(b1-4)GlcNAc,-0.057
same,glycan array binding signal (z-score),Gal3S6S(b1-4)GlcNAc6S,-0.011
same,glycan array binding signal (z-score),Gal4S(b1-4)GlcNAc,-0.043
same,glycan array binding signal (z-score),Gal4S6S(b1-4)GlcNAc,-0.05
same,glycan array binding signal (z-score),Gal6P(b1-4)GlcNAc,-0.066
same,glycan array binding signal (z-score),Gal6S(b1-3)GlcNAc,-0.06
same,glycan array binding signal (z-score),Gal6S(b1-3)GlcNAc6S,-0.063
same,glycan array binding signal (z-score),Gal6S(b1-4)Glc,-0.063
same,glycan array binding signal (z-score),Gal6S(b1-4)Glc6S,-0.004
same,glycan array binding signal (z-score),Gal6S(b1-4)GlcNAc,-0.085
same,glycan array binding signal (z-score),Gal6S(b1-4)GlcNAc6S,-0.072
same,glycan array binding signal (z-score),GalNAc(a1-3)Gal,-0.062
same,glycan array binding signal (z-score),GalNAc(a1-3)GalNAc,-0.043
same,glycan array binding signal (z-score),[4],-0.093
same,glycan array binding signal (z-score),[5],-0.077
same,glycan array binding signal (z-score),GalNAc(b1-3)Gal,-0.063
same,glycan array binding signal (z-score),[6],-0.032
same,glycan array binding signal (z-score),[7],-0.089
same,glycan array binding signal (z-score),[8],-0.083
same,glycan array binding signal (z-score),GalNAc(b1-3)GalNAc,-0.043
same,glycan array binding signal (z-score),GalNAc(b1-3)GlcNAc,-0.05
same,glycan array binding signal (z-score),GalNAc(b1-4)Gal(b1-4)Glc,-0.037
same,glycan array binding signal (z-score),GalNAc(b1-4)GlcNAc,-0.008
same,glycan array binding signal (z-score),[9],-0.049
